Test results taken from PubChem BioAssay AID1645887 (National Center for Advancing Translational Sciences (NCATS), 2021).
Values joined by “and” are separate entries in the source; they are usually repeats but may differ in a detail not shown here. Identical values can stand only once. Out of some 16,000 compounds screened, about 40 (0.2%) were called active. Not shown: some 1% with an inconclusive outcome. Calls follow the shape of the dose curve; as a rule, active = well fitted activation curve with a large enough effect; inconclusive = small, poorly fitted or top-dose-only effect, or another doubt; inactive = no such curve, though single readings can be large or run the other way. Some of the results follow.

The molecules below were run against Rap guanine nucleotide exchange factor 4 (Homo sapiens) (UniProt Q8WZA2) (assay: Validation qHTS for agonist of cAMP-regulated guanine nucleotide exchange factor 4 (EPAC2)). Conditions: EPAC2 Rap1B BODIPY-GDP exchange, fluorescence; activation: active compounds read high.
Sequence of UniProt Q8WZA2 (Q8WZA2 whole entry, looked up): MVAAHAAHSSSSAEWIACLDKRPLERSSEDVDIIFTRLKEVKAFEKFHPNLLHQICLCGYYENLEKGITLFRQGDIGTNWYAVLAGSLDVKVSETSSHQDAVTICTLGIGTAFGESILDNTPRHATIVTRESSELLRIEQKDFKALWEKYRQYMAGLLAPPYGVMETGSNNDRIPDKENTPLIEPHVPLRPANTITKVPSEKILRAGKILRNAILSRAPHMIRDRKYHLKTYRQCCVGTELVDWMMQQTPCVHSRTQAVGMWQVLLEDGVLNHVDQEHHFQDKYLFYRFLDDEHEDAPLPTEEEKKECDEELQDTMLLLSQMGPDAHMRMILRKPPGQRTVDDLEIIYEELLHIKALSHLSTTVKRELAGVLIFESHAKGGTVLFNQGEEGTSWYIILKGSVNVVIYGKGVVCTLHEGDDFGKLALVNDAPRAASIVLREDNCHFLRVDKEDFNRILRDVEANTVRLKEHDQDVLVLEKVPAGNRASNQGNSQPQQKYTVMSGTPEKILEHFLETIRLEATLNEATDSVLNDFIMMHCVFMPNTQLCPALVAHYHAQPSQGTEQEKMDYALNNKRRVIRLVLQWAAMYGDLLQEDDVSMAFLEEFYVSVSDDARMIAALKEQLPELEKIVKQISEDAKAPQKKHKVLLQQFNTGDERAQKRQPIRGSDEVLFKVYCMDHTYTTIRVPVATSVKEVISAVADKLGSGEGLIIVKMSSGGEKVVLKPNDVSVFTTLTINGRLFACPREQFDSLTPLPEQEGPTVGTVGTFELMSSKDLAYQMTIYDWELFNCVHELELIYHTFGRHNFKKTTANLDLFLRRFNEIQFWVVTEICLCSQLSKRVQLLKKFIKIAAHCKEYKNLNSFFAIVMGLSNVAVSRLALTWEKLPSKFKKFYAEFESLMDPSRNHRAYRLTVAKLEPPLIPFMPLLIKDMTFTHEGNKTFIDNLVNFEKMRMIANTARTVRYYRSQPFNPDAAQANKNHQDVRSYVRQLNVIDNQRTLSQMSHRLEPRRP
Summary of the method: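 Fluorescent exchange assay: 100 nM EPAC2 with 250 nM RAP1B-BODIPY-GDP and 50 uM GDP; compound added, 5 min at room temperature, then read (ex 480/em 540 nm) every 5 min for 30 min. Normalized to 6.5 mM cAMP agonist control.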
% is scaled to controls: 0 for no effect and ±100 for the full control effect.
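Also: exchange makes BODIPY-GDP fluorescence drop when released from Rap1B; series mostly up to about 150 µM.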

activation, inactive:
CN1CCc2cc3c(cc2C(=O)Cc2ccc4c(c2C1)OCO4)OCO3 15.3%
O=C(Nc1ccccc1)N1CC2(CCN(C(=O)c3cnccn3)CC2)C1 -2.68%
Cc1oc(-c2ccccc2NC(=O)c2cccnc2)nc1CNC(=O)C1CCCCCN1C (stereo not given) -11.3%
CC[C@H]1OC(=O)[C@H](C)[C@@H](O[C@H]2C[C@@](C)(OC)[C@@H](O)[C@H](C)O2)[C@H](C)[C@@H](O[C@@H]2O[C@H](C)C[C@H](N(C)C)[C@H]2O)[C@](C)(O)C[C@@H](C)/C(=N\OCOCCOC)[C@H](C)[C@@H](O)[C@]1(C)O -27.6%
O=C1NC(=O)[C@@]2(CCOc3ccc(F)cc32)N1 21.1%
C=C(Br)COC(c1ccco1)[C@H](Cc1ccccc1)NC(=O)OC(C)(C)C (stereo not given in full) -12.7%
COc1ccc(C(=O)NCC2Cc3cccc(-c4ccc(S(C)(=O)=O)cc4)c3O2)c(OC)n1 (stereo not given) -18%
CO/N=C(/C(=O)N[C@H]1C(=O)N2C(C(=O)O)=C(COC(C)=O)CSC12)c1csc(N)n1 (stereo not given in full) 0.516%
Nc1nc(F)nc2c1ncn2[C@@H]1O[C@H](CO)[C@@H](O)[C@@H]1O -0.223% and 3.09%
Cc1c(OCC(F)(F)F)ccnc1CS(=O)c1nc2ccccc2[nH]1 (stereo not given) -11.6% and -0.198% and -54.3%
C[C@H]1C=C2C=C[C@H](C)[C@H](CC[C@@H]3C[C@@H](O)CC(=O)O3)[C@H]2[C@@H](OC(=O)[C@@H](C)CCO)C1 -43.7%
COc1ccc(/C=C/c2cc(O)cc(O[C@H]3OC(CO)C(O)C(O)C3O)c2)cc1 (stereo not given in full) -22.7%
COC(C)C(C(=O)OCC1=CCN2CC[C@H](O)[C@@H]12)C(C)C (stereo not given in full) -14.1%
CN(C)c1ccc(-c2cc(NCc3cccnc3)ncn2)cc1 -7.87%
Cc1sc2ccccc2[n+]1CC(=O)c1ccc(F)cc1 -10.3%
COc1ccc2[nH]cc(CCNc3ncncc3-c3ccccc3C(F)(F)F)c2c1 -16.9%
NC(N)=Nc1nc(CSCC/C(N)=N\S(N)(=O)=O)cs1 -4.7%
CC(C)=CCCC(C)CCO (stereo not given) 4.53%
CCCCC[C@H](O)/C=C/[C@@H]1[C@@H](C/C=C\CCCC(=O)O)[C@@H](O)C[C@@H]1O -3.58%
CN(C)c1cc(-c2cccc(NS(C)(=O)=O)c2)ncn1 -16.6%
CC1OC(OCC2OC(Oc3c(-c4ccc(O)c(O)c4)oc4cc(O)cc(O)c4c3=O)C(O)C(O)C2O)C(O)C(O)C1O (stereo not given) -5.62%
C#CCCCCCCCCCCCC(O)CC(O)CO (stereo not given) -35.7%
CC[C@H]1OC(=O)[C@H](C)[C@@H](O[C@H]2C[C@@](C)(OC)[C@@H](O)[C@H](C)O2)[C@H](C)[C@@H](O[C@@H]2O[C@H](C)C[C@H](N(C)C)[C@H]2O)[C@](C)(O)C[C@@H](C)[C@@H]2N[C@@H](COCCOC)O[C@@H]([C@H]2C)[C@]1(C)O -12.6%
COc1ccccc1-c1ccnc(-n2ncc(C(=O)NCCc3ccncc3)c2C)n1 -1.92%
COc1ccccc1-n1cc(C(=O)NCCN2Cc3ccccc3OC(c3ccsc3)C2)cn1 (stereo not given) -10.8%
COc1ccccc1C(=O)N[C@@H]1c2ccccc2C2(CCN(C(=O)c3ccnn3C)CC2)[C@H]1OC -10.2%
Nc1nc(=S)c2ncn([C@@H]3O[C@H](CO)[C@@H](O)[C@H]3O)c2[nH]1 12.3%
c1csc(CNc2cc(-c3ccoc3)ncn2)c1 0.439%
Cc1cccc(CNc2ncncc2-c2cccc(C#N)c2)c1 -14%
O=C(NCCc1ccccc1)[C@@H]1CC=C[C@@H]2CCN(C3CCCCC3)C(=O)[C@@H]21 -4.2%
C[C@H](CCC(=O)NCC(=O)O)C1CC[C@H]2C3CC[C@@H]4C[C@H](O)CC[C@]4(C)C3C[C@H](O)[C@]12C (stereo not given in full) -11%
CC(C)NC[C@@H](O)COc1ccc(CCOCC2CC2)cc1 -12.9%
COCc1ccc(CN2Cc3ccccc3OC(c3ccccc3F)C2)o1 (stereo not given) 9.71%
COc1ccc(CN2CCC3(CCC(CNC(=O)c4ccco4)O3)CC2)cc1OC (stereo not given) -13.9%
CC(C)NCC(O)COc1ccc(COCCOC(C)C)cc1 (stereo not given) -8.77% and -33.1%
CN1CCN(c2ncc3nc(-c4ccccc4)c(=O)n(C)c3n2)CC1 3.91%
COc1ccc(-c2cn(Cc3ccc4ccccc4c3)nn2)cc1 -17.9%
Cc1ccsc1C(=O)N(Cc1cc2ccc(F)cc2nc1N1CCC(O)CC1)CC1CCCO1 (stereo not given) -3.76%
Cc1nc2cnc(Nc3ccccc3)nc2n(C2CC2)c1=O -1.25%
Cc1c(C(=O)N2CCOc3ccccc3C2)sc2ncnc(NCCCN3CCOCC3)c12 0.543%
CCC(C)C(=O)O[C@H]1C[C@@H](C)C=C2C=C[C@H](C)[C@H](CC[C@@H]3C[C@@H](O)CC(=O)O3)C21 (stereo not given in full) -10.4%
Cc1ccc(C(=O)Nc2cccc(-c3nc(CNC(=O)C4(C)CC4)c(C)o3)c2)s1 -5.27%
Cc1cc(-c2ccnc(-n3ncc(C(=O)N(C)CC(O)c4ccccc4)c3C)n2)c(C)s1 (stereo not given) -20.4%
CCCCCCCCCCCCCCCCCCOC[C@H](COP(=O)([O-])OCC[N+](C)(C)C)OC(C)=O 4.19%
CN1CC[C@H](c2c(O)cc(O)c3c(=O)cc(-c4ccccc4Cl)oc23)[C@H](O)C1 -9.22%
CC(N)=O -7.37%
O=C([C@@H]1C[C@@H](Sc2nc3ccccc3[nH]2)CN1Cc1ccc(C(F)(F)F)cc1)N1CCN(c2ccccc2F)CC1 -21.4%
O=C(NCN1CCOCC1)c1cnccn1 -1%
COc1cc(-c2cc(=O)c3c(O)c(OC)c(OC)c(OC)c3o2)cc(OC)c1OC -13.3%
COc1ncc2nc(-c3cc(F)cc(F)c3)c(=O)n(CCC#N)c2n1 -3.25%
Cc1noc(C)c1C(=O)N1CCC2(CCN(Cc3ccccc3)CC2)CC1 -5.2%
Cc1cnc(-n2ncc(C(=O)NCc3cccnc3)c2C)nc1-c1ccc(F)cc1 -7.19%
Cc1cc([C@](C)(N)C(=O)O)ccc1P(=O)(O)O -14.7%
Cc1ccc(OC[C@H](O)[C@H](C)NC(C)C)c2c1CCC2 -9.4%
N#CCCn1c(=O)c(-c2ccc(F)cc2)nc2cnc(OCc3ccccc3)nc21 -1.82%
O=C(NCc1cccnc1)c1cnn(-c2nccc(-c3cccs3)n2)c1C1CC1 -5.81%
CN(C)C(=O)c1ccc(-c2ccc3ncnc(N4CCOCC4)c3c2)cc1 2.35%
COc1ccc2[nH]cc(CCNc3ncncc3-c3ccccc3Cl)c2c1 -14.1%
Nc1nc(Cl)nc2c1ncn2[C@@H]1O[C@H](CO)[C@@H](O)[C@@H]1F -14.5%
CCCCCCCCCCCCCCCCOCC(CO)OC(C)=O (stereo not given) -11.3%
COc1cc2ccc(=O)oc2c(OC)c1OC -15.2%
CC(C)C(=O)OCC(=O)[C@@]12O[C@H](C3CCCCC3)O[C@@H]1C[C@H]1[C@@H]3CCC4=CC(=O)C=C[C@]4(C)[C@H]3[C@@H](O)C[C@@]12C -16.7%
COc1ccc(-c2nc3cnc(N(C)C)nc3n(CCC#N)c2=O)cc1 6.87%
O=c1cc(-c2ccccc2)oc2cc(O[C@@H]3O[C@H](CO)[C@@H](O)[C@H](O)[C@H]3O)c(O)c(O)c12 -8.5%
O=C(Cn1ccnc1[N+](=O)[O-])NCCO -36.8%
COc1ccc(-c2nc3cnc(N(C)C)nc3n(CCc3ccccc3)c2=O)cc1 -5.65%
COc1ccc(-c2nc3cnc(N4CCOCC4)nc3n(CCC#N)c2=O)cc1 0.144%
NC[C@H]1O[C@@H](n2cnc3c(N)ncnc32)[C@H](O)[C@@H]1O -9.49%
CC1(C)C(O)CC[C@]2(C)C1CC[C@@]1(C)C2C(=O)C=C2[C@@H]3C[C@@](C)(C(=O)O)CC[C@@]3(C)CCC21C (stereo not given in full) -15.2%
Cc1cccc2c(N3CCCC3)nc(CNS(=O)(=O)c3ccccc3Cl)nc12 -2.23%
COc1cccc(Nc2ncc3nc(-c4ccc(F)cc4)c(=O)n(CCC#N)c3n2)c1 22.6%
c1cnc2cc3c(cc2n1)[C@@H]1CNC[C@H]3C1 4.18%
COc1ccccc1-c1cncnc1Nc1ccc(F)cc1 -10.7%
Cc1cccc2cc(CN(CC3CCCO3)C(=O)c3cccc(F)c3)c(N(C)C)nc12 (stereo not given) -4.36%
CC1CCC2=C1C[C@H](C(C)(C)O)CC[C@@H]2C (stereo not given in full) -17.3%
O=C(O)C[C@H]1c2ccccc2S(=O)(=O)N1C1CCCCC1 -11.6%
COc1cccc(Cn2c(=O)c(CCc3ccccc3)nc3cncnc32)c1 10.1%
COc1ccc(-c2cccc3c2OC(CNC(=O)c2ccccc2-n2cccn2)C3)nn1 (stereo not given) -4.56%
CN1CCN(c2ncc3nc(-c4cn(C)c5ccccc45)c(=O)n(CCc4ccccc4)c3n2)CC1 -7.5%
O=c1cc(-c2ccccc2O)oc2ccc3ccccc3c12 -4.35%
